Laboratory results taken from publication PMC4336329 (PLoS ONE, 2015).
Among all 310,000 compounds or so, about 2,200 (0.71%) showed an effect of 50% or more. The effect is printed as a negative number. Some of the results follow.

biological target: human ether-à-go-go-related gene (hERG) potassium channel (human, UniProt Q12809); test: primary screen, population patch clamp on CHO cells stably expressing hERG
Sequence (Q12809 whole entry, looked up): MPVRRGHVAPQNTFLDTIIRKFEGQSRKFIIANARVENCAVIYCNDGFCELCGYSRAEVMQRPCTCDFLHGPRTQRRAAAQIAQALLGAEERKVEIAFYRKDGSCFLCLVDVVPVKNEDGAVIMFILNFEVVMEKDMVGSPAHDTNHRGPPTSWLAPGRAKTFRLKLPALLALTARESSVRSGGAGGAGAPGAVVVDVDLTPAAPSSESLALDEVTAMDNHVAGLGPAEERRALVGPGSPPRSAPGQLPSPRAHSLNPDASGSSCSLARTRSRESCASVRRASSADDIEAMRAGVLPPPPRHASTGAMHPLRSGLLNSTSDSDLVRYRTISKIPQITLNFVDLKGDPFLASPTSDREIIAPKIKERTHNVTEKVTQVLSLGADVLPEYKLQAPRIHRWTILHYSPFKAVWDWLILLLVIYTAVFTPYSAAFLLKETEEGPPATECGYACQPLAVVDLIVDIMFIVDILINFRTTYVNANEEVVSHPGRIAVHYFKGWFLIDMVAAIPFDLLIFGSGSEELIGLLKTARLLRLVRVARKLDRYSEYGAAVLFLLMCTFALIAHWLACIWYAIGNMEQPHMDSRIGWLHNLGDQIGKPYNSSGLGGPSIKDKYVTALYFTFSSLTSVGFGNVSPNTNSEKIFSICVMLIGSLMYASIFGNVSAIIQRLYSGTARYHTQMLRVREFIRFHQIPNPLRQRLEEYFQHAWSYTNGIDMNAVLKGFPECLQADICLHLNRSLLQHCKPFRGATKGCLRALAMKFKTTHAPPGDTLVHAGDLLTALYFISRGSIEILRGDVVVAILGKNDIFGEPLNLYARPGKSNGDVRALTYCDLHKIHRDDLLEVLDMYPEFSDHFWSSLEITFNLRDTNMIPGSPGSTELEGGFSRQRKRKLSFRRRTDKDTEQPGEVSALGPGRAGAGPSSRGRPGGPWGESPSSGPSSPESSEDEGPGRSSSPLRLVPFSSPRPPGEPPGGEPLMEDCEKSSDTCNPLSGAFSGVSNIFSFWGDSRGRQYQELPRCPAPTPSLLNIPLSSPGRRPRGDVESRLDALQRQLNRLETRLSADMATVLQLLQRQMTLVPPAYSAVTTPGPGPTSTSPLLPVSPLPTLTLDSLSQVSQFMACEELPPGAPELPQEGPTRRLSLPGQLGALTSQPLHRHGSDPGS

Row | Structure (SMILES) | hERG current change (%, negative = inhibition) at 1uM [%]
1 | Cn1c(=O)c2c3c(sc2n2cnnc12)CCC3 | 6.74
2 | Cc1ccc(-c2nnc(CSc3nncn3N)o2)cc1 | 13.7
3 | COc1ccc(S(=O)(=O)N2CCOC23CCN(C(=O)c2ccccc2Br)CC3)cc1 | 12.6
4 | C[C@H](C(O)c1ccccc1)N(C)C(=O)CN (stereo partly drawn) | 3.45
5 | CCOC(=O)c1sc(N=Nc2c(O)[nH]c(=O)[nH]c2=O)c(C(=O)OCC)c1C | 15.2
6 | CCN(CC)C(=O)CSc1nc2cc3c(cc2c(=O)n1CCCC(=O)NCc1ccc(OC)cc1)OCO3 | 11.6
7 | COc1ccc(S(=O)(=O)Nc2c3ccccc3nc(=O)n2-c2ccccc2)cc1 | 10.3
8 | O=C(Nc1nnc(-c2cccnc2)s1)c1cccs1 | 10.3
9 | CCCc1cc(=O)[nH]c2nnc(SCC(=O)NC3CCCCC3)n12 | 0.286
10 | Cc1nn(C(=O)N2CCCCC2)c(C)c1CN1C(=O)c2ccccc2C1=O | 16.9
11 | Cn1nc(C(F)(F)F)c(-c2ccc(F)cc2)c1NC(=O)c1ccco1 | 3.91
12 | CCOC(=O)c1ccc(S(=O)(=O)N2CCN(C(=O)c3nn(C)c(=O)c4ccccc34)CC2)cc1 | -18.2
13 | COc1ccc(-c2n[nH]c(C(F)(F)F)c2-c2cc3ccccc3o2)c(O)c1 | 7.94
14 | CCOC(=O)c1c(C)c(C(=O)N2CCCCCC2)c(C)n1C | 7.19
15 | N#CC(c1ccccc1)(c1ncc(C(F)(F)F)cc1Cl)N1CCOCC1 (stereo not drawn) | 7.36
16 | CCc1c(C)sc(NC(=O)C2CC2)c1C(=O)OC(C)C | 8.86
17 | CCc1ccc[n+](-c2[nH]c(=O)sc2/C=N/N=C(\[O-])c2cccnc2)c1 | 12.9
18 | COc1ccc(CCN2C(=O)c3[nH]nc(-c4ccccc4O)c3C2c2cccc(O)c2)cc1OC (stereo not drawn) | -3.23
19 | Cc1ccc(Cl)cc1NC(=O)c1cc2ccccc2cc1O | 3.42
20 | CCN(CC)c1ccc(C2Nc3cccc4cccc(c34)N2)c(O)c1 | 19.6
21 | Cn1c(=O)cc(OCC(=O)N2CCN(C3CCCCC3)CC2)c2ccccc21 | -2.06
22 | CC1(OC(=O)CCc2ccccc2)C(=O)C=C2C=C(c3ccc(C#N)cc3)N(Cc3ccccc3)C=C2C1=O (stereo not drawn) | 8.3
23 | Cn1ccsc1=NC(=O)c1ccc(OC(F)(F)F)cc1 | 8.43

Row | Structure (SMILES) | hERG current change (%, negative = inhibition) at 1uM [%]
24 | Cc1ccc(S(=O)(=O)N(C)Cc2ccc(C(=O)N/N=C3\CCCC(=O)C3)cc2)cc1 | 11.1
25 | O=S(=O)(Nc1nc2ccccc2nc1N1CCc2ccccc2C1)c1ccc(Cl)cc1 | 9.53
26 | CCc1nnc(NS(=O)(=O)c2ccc(NC(=O)c3ccc(C#N)cc3)cc2)s1 | 17.1
27 | CCOC(=O)N1CCC(NC(=O)C2CCN(C(=O)N3CCOc4ccccc43)CC2)CC1 | 10
28 | COc1ccccc1C(=O)C1CCCN(Cc2cnc(C)s2)C1 (stereo not drawn) | 3.84
29 | Fc1ccc(/C=N/n2c(C3CCCCC3)n[nH]c2=S)cc1 | 22.5
30 | Cc1cccc(C)c1NC(=O)C1(NC(=O)C2CCC(=O)N2)CCCCC1 (stereo not drawn) | 10.7
31 | CC1CC(C)CN(c2ncc3c(n2)CC(c2ccc(Cl)cc2)CC3=O)C1 (stereo not drawn) | 9.06
32 | Cn1cc(C(=O)N2CCCCCC2)c(=O)c2cc(S(=O)(=O)N3CCCCC3)ccc21 | 13.4
33 | O=S1(=O)C=C(Oc2ccc3ccccc3c2)c2ccccc21 | 10.6
34 | Cn1c(=O)[nH]c(=O)c2c1nc(N1CCCC1)n2CCCSc1nnnn1-c1ccccc1 | -5.96
35 | Cc1cc(NC(=O)c2ccc3[nH]c(C)c(C)c3c2)ccn1 | 9.8
36 | COc1ccc(C(=O)NCc2ccccc2OC)cc1 | 3
37 | CCOC(=O)c1ccc(NC(=O)CSc2nnc(CNC(=O)c3ccco3)o2)cc1 | 25
38 | CCN(CC)C(=O)Sc1cccc2cccnc12 | 14.3
39 | CC1(C)CC(CCNS(=O)(=O)c2ccccc2)(c2ccccc2)CCO1 (stereo not drawn) | 14.4
40 | CCCC(=O)Nc1ccc(C(=O)COC(=O)C2CC2C)cc1 (stereo not drawn) | 12.1
41 | Cc1cccc2sc(NC(=O)C3CC3)nc12 | 12.4
42 | COC(=O)c1ccccc1NC(=O)C1CCN(S(=O)(=O)c2cc(OC)ccc2OC)CC1 | 3.62
43 | Cc1cccc(-c2nc(CS(=O)CC(=O)NCC3CCCO3)c(C)o2)c1 (stereo not drawn) | 0.84
44 | COCCOC(=O)C1=C(C)OC(N)=C(C#N)C1c1ccc2c(c1)OCO2 (stereo not drawn) | -2.99
45 | CC(C)n1c(SCC(=O)Nc2nncs2)nnc1-c1ccco1 | -12.1
